About 100 (0.036%) of roughly 280,000 compounds were called active. The inconclusive results got no clear call from the source; some entries with a clear call stand among them for comparison. Calls follow the shape of the dose curve; as a rule, active = well fitted inhibition curve with a large enough effect in the signal ratio, with a control signal flat (not every such curve was filed as active); inconclusive = small, poorly fitted or top-dose-only effect, or effect the other way, or a change in a side signal; inactive = no such curve, though single readings can be large or run the other way; the % refers to the signal ratio. Where the call is inconclusive, the potency comes from a doubtful curve fit. “Side channel” marks fits to a control or component signal instead of the main read-out.
Target: Muscleblind-like protein 1 (Homo sapiens) (UniProt Q9NR56)
Assay: qHTS Assay for Inhibitors of MBNL1-poly(CUG) RNA binding
Settings: TR-FRET MBNL1-His/biotin-(CUG)12 binding, 665/545 ratio; activity change, negative = inhibition: at 57.5 µM (top of the series)
In short: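 Compounds (final 92 nM to 58 uM) are added to His-tagged MBNL1 and biotin-(CUG)12, then terbium anti-His antibody and streptavidin-XL665 (5 nM final). After 60 min at room temperature, the 665/545 nm ratio is read.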
% is scaled to controls: 0 for no effect and ±100 for the full control effect; potency is read from the fitted curve at half-maximal effect; tags tell the direction and shape of the fitted curve or compound fluorescence and quenching.

Sequence of UniProt Q9NR56 (Q9NR56 whole entry, looked up): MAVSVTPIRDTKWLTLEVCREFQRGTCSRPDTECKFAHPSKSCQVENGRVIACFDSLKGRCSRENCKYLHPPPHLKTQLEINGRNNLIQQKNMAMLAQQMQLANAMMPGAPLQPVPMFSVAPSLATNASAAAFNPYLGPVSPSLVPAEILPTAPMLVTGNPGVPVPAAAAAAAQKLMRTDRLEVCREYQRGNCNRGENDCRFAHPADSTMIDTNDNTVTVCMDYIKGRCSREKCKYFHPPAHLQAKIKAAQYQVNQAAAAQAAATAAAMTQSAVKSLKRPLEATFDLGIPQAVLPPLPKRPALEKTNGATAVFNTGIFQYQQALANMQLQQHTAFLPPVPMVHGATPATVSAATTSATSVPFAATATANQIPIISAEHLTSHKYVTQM

Row | SMILES | Potency | activity change, negative = inhibition
1 | Cc1ccc(C2NC(=O)c3c(sc4c3CCN(C)C4)N2)s1 (stereo not drawn) | inconclusive: 14.1 µM [quencher, side channel, partial curve] | –
2 | O=C(O)COc1ccc2c(-c3ccccc3)cc(=O)oc2c1 | inconclusive: 22.4 µM [quencher, side channel, single point] | –
3 | CCCCC(=O)NC(c1ccc(N(C)C)cc1)c1ccc2cccnc2c1O (stereo not drawn) | inconclusive: 39.8 µM [quencher, side channel, single point] | –
4 | CCN(CC)CCN1C(=O)C(=O)/C(=C(/O)c2ccc(S(=O)(=O)N3CCOCC3)cc2)C1c1ccc(Cl)cc1 (stereo not drawn) | inconclusive: 28.2 µM [quencher, side channel, partial curve] | –
5 | COc1ccc(/C=C/C(=O)Nc2cccc(S(=O)(=O)N3CCCC3)c2)cc1OC | inconclusive: 44.7 µM [quencher, side channel, partial curve, poor fit] | –
6 | CC(C)(C)c1ccc(C(=O)Nc2ccc(C(=O)NCc3cccnc3)cc2)cc1 | inconclusive: 39.8 µM [quencher, side channel, single point] | –
7 | N#Cc1ccccc1NC(=O)CSC1=Nc2ccccc2C2CC=NN12 (stereo not drawn) | – | inactive: -6.58%
8 | CCc1nc(SCC(=O)c2ccc3c(c2)OCCO3)c2ccccc2n1 | inconclusive: 0.447 µM [quencher, side channel, partial curve, poor fit] | –
9 | O=C(c1oc(=O)c2ccccc2c1-c1ccccc1)N1CCOCC1 | – | inactive: -1.58%
10 | O=C(NCC(=O)N1CCN(Cc2ccccc2)CC1)c1ccc(Br)cc1 | inconclusive: 39.8 µM [inhibitor, single point] | –
11 | O=C1c2ccc3c4c(ccc(c24)C(=O)N1CCCCO)C(=O)N(CCCCO)C3=O | inconclusive: 5.62 µM [quencher, side channel, full curve] | –
12 | CN1CCN(S(=O)(=O)c2cccc(C(=O)Nc3cc(C(N)=O)cc(C(N)=O)c3)c2)CC1 | – | inactive: -3.96%
13 | O=C1c2cccc([N+](=O)[O-])c2C(=O)N1CCO | inconclusive: 10 µM [quencher, side channel, partial curve] | –
14 | N/C(=N\OC(=O)/C=C/c1ccccc1)c1cccnc1 | inconclusive: 28.2 µM [quencher, side channel, partial curve] | –
15 | CC(C(=O)N(C)C1CCS(=O)(=O)C1)N1C(=O)/C(=C/c2cccs2)SC1=S (stereo not drawn) | inconclusive: 8.91 µM [quencher, side channel, partial curve, poor fit] | –
16 | CCCCN=C1NN=C(c2cccc([N+](=O)[O-])c2)CS1 | inconclusive: 8.91 µM [quencher, side channel, partial curve] | –
17 | O=C(OCn1ncc(Br)c(Br)c1=O)c1ccccc1Cl | inconclusive: 39.8 µM [fluorescent, side channel, single point] | –
18 | CCCc1nnc(NC(=O)c2cc3ccccc3oc2=O)s1 | inconclusive: 2.24 µM [quencher, side channel, partial curve, poor fit] | –
19 | COCc1cc(=O)n2[nH]c(-c3cccs3)cc2n1 | inconclusive: 0.562 µM [fluorescent, side channel, single point] | –
20 | Cc1ccccc1CSCC(Nc1ccc(C(=O)O)cc1[N+](=O)[O-])C(=O)O (stereo not drawn) | inconclusive: 25.1 µM [quencher, partial curve] | –

Row | SMILES | Potency | activity change, negative = inhibition
21 | CN(C)S(=O)(=O)c1ccc(C(=O)Nc2nc(-c3ccccc3)c(C(=O)c3ccccc3)s2)cc1 | inconclusive: 0.562 µM [quencher, side channel, single point] | –
22 | O=C(O)CSc1cc(NS(=O)(=O)c2ccc(Cl)cc2)c2ccccc2c1O | inconclusive: 31.6 µM [quencher, side channel, partial curve] | –
23 | O=C(COc1ccccc1)Nc1cccc(-c2cn3cccnc3n2)c1 | inconclusive: 8.91 µM [quencher, side channel, partial curve] | –
24 | Cc1ccc(-n2c(CNc3cccc(Cl)c3)n[nH]c2=S)cc1 | – | inactive: -5.79%
25 | O=C(O)c1cc(NS(=O)(=O)c2ccc(NCc3ccccc3)c([N+](=O)[O-])c2)cc(C(=O)O)c1 | inconclusive: 15.8 µM [quencher, side channel, partial curve] | –
26 | Cc1nnc(SCc2ccc([N+](=O)[O-])cc2)o1 | inconclusive: 15.8 µM [quencher, side channel, partial curve] | –
27 | O=C(O)c1ccc(N/N=C/C2=Cc3ccccc3OC2)cc1 | inconclusive: 28.2 µM [quencher, side channel, single point] | –
28 | CCOc1ccc2nc(COC(=O)c3cccs3)c(C(C)=O)[n+]([O-])c2c1 | inconclusive: 14.1 µM [quencher, side channel, partial curve] | –
29 | Cc1ccsc1C1C(C#N)=C(N)Oc2n[nH]c(C)c21 (stereo not drawn) | – | inactive: 4.46%
30 | O=C(CN(Cc1cccs1)C(=O)c1csnn1)NC1CCCC1 | – | inactive: -9.78%
31 | Cn1c(O)c(N=NC(=O)Cn2ccc(C(F)(F)F)n2)c2ccccc21 | inconclusive: 2.24 µM [quencher, side channel, full curve] | –
32 | O=C(CSc1cccc[n+]1[O-])Nc1ccc(C(F)(F)F)cc1[N+](=O)[O-] | inconclusive: 20 µM [quencher, partial curve] | –
33 | O=C(COc1ccc(F)cc1F)NNC(=O)Nc1cccc([N+](=O)[O-])c1 | inconclusive: 10 µM [quencher, side channel, partial curve] | –
34 | O=C(CCC(=O)N(c1cccc(F)c1)C(C(=O)NC1CCCC1)c1ccncc1)Nc1cccnc1 (stereo not drawn) | inconclusive: 39.8 µM [quencher, side channel, single point] | –
35 | Cc1noc(NS(=O)(=O)c2ccc(N/C=C/C(=O)c3ccncc3)cc2)c1C | inconclusive: 17.8 µM [quencher, side channel, partial curve] | –
36 | CCN(CC)Cc1c(C(=O)N/N=C/c2ccncc2)nnn1-c1nonc1N | inconclusive: 35.5 µM [quencher, side channel, single point] | –
37 | Cc1cc(/C=N/Nc2ncnc(N)c2[N+](=O)[O-])c(C)n1-c1ccccc1 | inconclusive: 8.91 µM [quencher, side channel, partial curve] | –
38 | O=c1c(CN2CCN(c3ccccn3)CC2)coc2ccccc12 | – | inactive: 16.5%
39 | Cc1ccc(Sc2c(C)[nH]n(C(C)(C)C)c2=O)cc1 | – | inactive: 2.82%
40 | O=C(CCc1nc2ccccc2[nH]1)Nc1ccc2c(c1)OCCO2 | inconclusive: 2 µM [fluorescent, side channel, full curve] | –

Row | SMILES | Potency | activity change, negative = inhibition
41 | CC1(C)Cc2ccccc2C(NNC(=O)c2ccccn2)=N1 | – | inactive: 5.45%
42 | CCNc1ccc2c(Cl)cc(=O)oc2c1 | inconclusive: 17.8 µM [quencher, side channel, partial curve] | –
43 | CCOC(=O)c1[nH]c2ccc(OC)cc2c1NC(=S)N1CCN(c2cccc(Cl)c2)CC1 | inconclusive: 0.141 µM [fluorescent, side channel, full curve, poor fit] | –
44 | CC(C)n1c(CSCc2ccc(Cl)cc2Cl)n[nH]c1=S | – | inactive: 6.03%
45 | COc1ccc(-n2nc(C(=O)NCC(=O)NCC3CCCO3)c3ccccc3c2=O)cc1Cl (stereo not drawn) | inconclusive: 20 µM [quencher, side channel, partial curve] | –
46 | Cc1cc(/C=C(\C#N)C(=O)NCc2ccco2)c(C)[nH]1 | inconclusive: 6.31 µM [quencher, side channel, partial curve] | –
47 | c1ccc(-c2ccc3c(c2)NCCN3)cc1 | inconclusive: 22.4 µM [quencher, side channel, single point] | –
48 | CC1CCN(C(=S)c2ccc([N+](=O)[O-])cc2)CC1 | inconclusive: 15.8 µM [quencher, side channel, partial curve] | –
49 | CCOC(=O)CNc1c(-c2ccc(F)cc2)nc2cnccn12 | inconclusive: 39.8 µM [quencher, side channel, single point] | –
50 | c1ccc(-c2csc(Nc3cccnc3)n2)nc1 | inconclusive: 28.2 µM [quencher, side channel, single point] | –
51 | N#C/C(=C\c1c(N2CCN(c3ccccc3)CC2)nc2ccccn2c1=O)C(N)=O | inconclusive: 14.1 µM [quencher, side channel, partial curve] | –
52 | COc1ccc(CCNC(=O)c2cc3c(=O)n4ccccc4nc3n(CCN3CCOCC3)c2=N)cc1 | inconclusive: 4.47 µM [quencher, side channel, partial curve] | –
53 | O=C(NCCOc1ccccc1)c1cc(C(=O)NCCOc2ccccc2)cc([N+](=O)[O-])c1 | inconclusive: 15.8 µM [quencher, side channel, partial curve] | –
54 | Cc1ccc(-n2c(O)c(C=Nc3cc(C)on3)c3ccccc3c2=O)c(C)c1 | inconclusive: 8.91 µM [quencher, side channel, single point] | –
55 | O=C(Nc1ccc2oc(-c3ccncc3)nc2c1)c1ccc([N+](=O)[O-])o1 | inconclusive: 3.98 µM [quencher, side channel, full curve] | –
56 | O=C(Oc1coc(CSc2ncccn2)cc1=O)c1ccccc1[N+](=O)[O-] | inconclusive: 20 µM [quencher, side channel, partial curve] | –
57 | O=[N+]([O-])c1ccccc1/C=N/NC1=NCCCCC1 | inconclusive: 14.1 µM [quencher, partial curve] | –
58 | O=C(COc1ccc(Cl)cc1[N+](=O)[O-])N/N=C/c1cccs1 | inconclusive: 14.1 µM [quencher, side channel, partial curve] | –
